# In the supplement of paper PMC8728848:
# Some of the results follow.
# Key:
# Assay in all cases: glycan array binding signal (z-score within array); higher = stronger binding
# Settings in all cases: glycan notation: IUPAC condensed, linker removed
# Fuc(a1-3)GlcNAc = molecular target: Fuc(a1-3)GlcNAc
# Outline: (§1)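 The binding signal is a Z-score computed within each array. Data were drawn from 3228 arrays in the Consortium for Functional Glycomics database, restricted to those with a known protein sequence. Scores were averaged over arrays of the same protein sequence at different concentrations or buffers, and over linkers, and negative values can be taken as non-binding.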
# [1] = molecular target: Fuc(a1-3)[Gal(b1-4)]Glc6S
# Outline: as §1
# [2] = molecular target: Fuc(a1-3)[Gal(b1-4)]GlcNAc
# Outline: as §1
# [3] = molecular target: Fuc(a1-3)[Gal(b1-4)]GlcNAc(b1-2)Man
# Outline: as §1
# [4] = molecular target: Fuc(a1-3)[Gal(b1-4)]GlcNAc(b1-2)Man(a1-3)[Fuc(a1-3)[Gal(b1-4)]GlcNAc(b1-2)Man(a1-6)]Man(b1-4)GlcNAc(b1-4)GlcNAc
# Outline: as §1
# [5] = molecular target: Fuc(a1-3)[Gal(b1-4)]GlcNAc(b1-2)Man(a1-3)[Fuc(a1-3)[Gal(b1-4)]GlcNAc(b1-2)Man(a1-6)]Man(b1-4)GlcNAc(b1-4)[Fuc(a1-6)]GlcNAc
# Outline: as §1
# [6] = molecular target: Fuc(a1-3)[Gal(b1-4)]GlcNAc(b1-3)Gal(b1-3)[Fuc(a1-4)]GlcNAc
# Outline: as §1
# [7] = molecular target: Fuc(a1-3)[Gal(b1-4)]GlcNAc(b1-3)Gal(b1-4)[Fuc(a1-3)]GlcNAc
# Outline: as §1
# [8] = molecular target: Fuc(a1-3)[Gal(b1-4)]GlcNAc(b1-3)Gal(b1-4)[Fuc(a1-3)]GlcNAc(b1-3)Gal(b1-4)[Fuc(a1-3)]GlcNAc
# Outline: as §1
# [9] = molecular target: Fuc(a1-3)[Gal(b1-4)]GlcNAc(b1-3)GalNAc
# Outline: as §1
# [10] = molecular target: Fuc(a1-3)[Gal(b1-4)]GlcNAc(b1-6)GalNAc
# Outline: as §1
# [11] = molecular target: Fuc(a1-3)[Gal(b1-4)]GlcNAc(b1-6)[Gal(b1-3)GlcNAc(b1-3)]Gal(b1-4)Glc
# Outline: as §1
# [12] = molecular target: Fuc(a1-3)[Gal(b1-4)]GlcNAc6S
# Outline: as §1
# [13] = molecular target: Fuc(a1-3)[Gal3S(b1-4)]Glc
# Outline: as §1
# [14] = molecular target: Fuc(a1-3)[Gal3S(b1-4)]GlcNAc
# Outline: as §1
# [15] = molecular target: Fuc(a1-3)[Gal3S(b1-4)]GlcNAc6S
# Outline: as §1
# [16] = molecular target: Fuc(a1-3)[GalNAc(b1-4)]GlcNAc
# Outline: as §1
# [17] = molecular target: Fuc(a1-3)[GalNAc(b1-4)]GlcNAc6S
# Outline: as §1
# Fuc(a1-4)GlcNAc = molecular target: Fuc(a1-4)GlcNAc
# Outline: as §1
# Fuc(b1-3)GlcNAc = molecular target: Fuc(b1-3)GlcNAc
# Outline: as §1
# Gal(a1-2)Gal = molecular target: Gal(a1-2)Gal
# Outline: as §1
# Gal(a1-3)Gal = molecular target: Gal(a1-3)Gal
# Outline: as §1
# Gal(a1-3)Gal(b1-3)GlcNAc = molecular target: Gal(a1-3)Gal(b1-3)GlcNAc
# Outline: as §1
# [18] = molecular target: Gal(a1-3)Gal(b1-3)GlcNAc(b1-2)Man
# Outline: as §1
# [19] = molecular target: Gal(a1-3)Gal(b1-3)GlcNAc(b1-2)Man(a1-3)[Gal(a1-3)Gal(b1-3)GlcNAc(b1-2)Man(a1-6)]Man(b1-4)GlcNAc(b1-4)GlcNAc
# Outline: as §1
# [20] = molecular target: Gal(a1-3)Gal(b1-3)GlcNAc(b1-3)GalNAc
# Outline: as §1
# [21] = molecular target: Gal(a1-3)Gal(b1-3)GlcNAc(b1-6)GalNAc
# Outline: as §1
# [22] = molecular target: Gal(a1-3)Gal(b1-3)[Fuc(a1-4)]GlcNAc(b1-2)Man(a1-3)[Gal(a1-3)Gal(b1-3)[Fuc(a1-4)]GlcNAc(b1-2)Man(a1-6)]Man(b1-4)GlcNAc(b1-4)GlcNAc
# Outline: as §1
# Gal(a1-3)Gal(b1-4)Glc = molecular target: Gal(a1-3)Gal(b1-4)Glc
# Outline: as §1
# Gal(a1-3)Gal(b1-4)GlcNAc = molecular target: Gal(a1-3)Gal(b1-4)GlcNAc
# Outline: as §1
# [23] = molecular target: Gal(a1-3)Gal(b1-4)GlcNAc(b1-2)Man
# Outline: as §1
# [24] = molecular target: Gal(a1-3)Gal(b1-4)GlcNAc(b1-2)Man(a1-3)[Gal(a1-3)Gal(b1-4)GlcNAc(b1-2)Man(a1-6)]Man(b1-4)GlcNAc(b1-4)GlcNAc
# Outline: as §1
# [25] = molecular target: Gal(a1-3)Gal(b1-4)GlcNAc(b1-3)GalNAc
# Outline: as §1
# [26] = molecular target: Gal(a1-3)Gal(b1-4)GlcNAc(b1-6)GalNAc
# Outline: as §1
# [27] = molecular target: Gal(a1-3)Gal(b1-4)[Fuc(a1-3)]GlcNAc
# Outline: as §1
# [28] = molecular target: Gal(a1-3)Gal(b1-4)[Fuc(a1-3)]GlcNAc(b1-2)Man(a1-3)[Gal(a1-3)Gal(b1-4)[Fuc(a1-3)]GlcNAc(b1-2)Man(a1-6)]Man(b1-4)GlcNAc(b1-4)GlcNAc
# Outline: as §1
# Gal(a1-3)GalNAc = molecular target: Gal(a1-3)GalNAc
# Outline: as §1
# [29] = molecular target: Gal(a1-3)[Gal(a1-4)]Gal(b1-4)GlcNAc
# Outline: as §1
# [30] = molecular target: Gal(a1-4)Gal(b1-3)GlcNAc(b1-2)Man(a1-3)[Gal(a1-4)Gal(b1-3)GlcNAc(b1-2)Man(a1-6)]Man(b1-4)GlcNAc(b1-4)GlcNAc
# Outline: as §1
# Gal(a1-4)Gal(b1-4)Glc = molecular target: Gal(a1-4)Gal(b1-4)Glc
# Outline: as §1
# Gal(a1-4)Gal(b1-4)GlcNAc = molecular target: Gal(a1-4)Gal(b1-4)GlcNAc
# Outline: as §1
# [31] = molecular target: Gal(a1-4)Gal(b1-4)GlcNAc(b1-2)Man(a1-3)[Gal(a1-4)Gal(b1-4)GlcNAc(b1-2)Man(a1-6)]Man(b1-4)GlcNAc(b1-4)GlcNAc
# Outline: as §1
# [32] = molecular target: Gal(a1-4)Gal(b1-4)GlcNAc(b1-3)Gal(b1-4)Glc
# Outline: as §1
# Gal(a1-4)GlcNAc = molecular target: Gal(a1-4)GlcNAc
# Outline: as §1
# Gal(a1-6)Glc = molecular target: Gal(a1-6)Glc
# Outline: as §1
binder,measurement,setting,value
PfulAvr4 2 (Pseudocercospora fuligena) (protein) HHHHHHDYKDDDDKAKPIKPFACPPKDFTTTKCQGPVDCLYANPLSCLGYIQCVCDDDACSTATPYAKSCPTGLAWVEKLKRCDGIKKSACPKKMYEGS,glycan array binding signal (z-score),Fuc(a1-3)GlcNAc,-0.168
same,glycan array binding signal (z-score),[1],0.132
same,glycan array binding signal (z-score),[2],-0.175
same,glycan array binding signal (z-score),[3],-0.157
same,glycan array binding signal (z-score),[4],-0.253
same,glycan array binding signal (z-score),[5],-0.103
same,glycan array binding signal (z-score),[6],-0.299
same,glycan array binding signal (z-score),[7],0.113
same,glycan array binding signal (z-score),[8],-0.353
same,glycan array binding signal (z-score),[9],0.568
same,glycan array binding signal (z-score),[10],0.142
same,glycan array binding signal (z-score),[11],-0.046
same,glycan array binding signal (z-score),[12],0.605
same,glycan array binding signal (z-score),[13],-0.263
same,glycan array binding signal (z-score),[14],-0.142
same,glycan array binding signal (z-score),[15],-0.137
same,glycan array binding signal (z-score),[16],0.171
same,glycan array binding signal (z-score),[17],-0.332
same,glycan array binding signal (z-score),Fuc(a1-4)GlcNAc,-0.158
same,glycan array binding signal (z-score),Fuc(b1-3)GlcNAc,-0.111
same,glycan array binding signal (z-score),Gal(a1-2)Gal,0.11
same,glycan array binding signal (z-score),Gal(a1-3)Gal,-0.324
same,glycan array binding signal (z-score),Gal(a1-3)Gal(b1-3)GlcNAc,-0.37
same,glycan array binding signal (z-score),[18],-0.323
same,glycan array binding signal (z-score),[19],0.798
same,glycan array binding signal (z-score),[20],-0.14
same,glycan array binding signal (z-score),[21],-0.335
same,glycan array binding signal (z-score),[22],-0.043
same,glycan array binding signal (z-score),Gal(a1-3)Gal(b1-4)Glc,-0.238
same,glycan array binding signal (z-score),Gal(a1-3)Gal(b1-4)GlcNAc,-0.188
same,glycan array binding signal (z-score),[23],-0.019
same,glycan array binding signal (z-score),[24],-0.309
same,glycan array binding signal (z-score),[25],-0.236
same,glycan array binding signal (z-score),[26],-0.286
same,glycan array binding signal (z-score),[27],-0.306
same,glycan array binding signal (z-score),[28],-0.284
same,glycan array binding signal (z-score),Gal(a1-3)GalNAc,-0.354
same,glycan array binding signal (z-score),[29],-0.334
same,glycan array binding signal (z-score),[30],0.37
same,glycan array binding signal (z-score),Gal(a1-4)Gal(b1-4)Glc,0.873
same,glycan array binding signal (z-score),Gal(a1-4)Gal(b1-4)GlcNAc,-0.193
same,glycan array binding signal (z-score),[31],1.43
same,glycan array binding signal (z-score),[32],-0.267
same,glycan array binding signal (z-score),Gal(a1-4)GlcNAc,-0.216
same,glycan array binding signal (z-score),Gal(a1-6)Glc,-0.344
